Data published in the supplement of paper PMC8728848.
Some of the results follow.

Columns and labels:
Test in all cases: glycan array binding signal (z-score within array); higher = stronger binding
Settings in all cases: glycan notation: IUPAC condensed, linker removed
[1] = target: Neu5Ac(a2-6)Gal(b1-4)GlcNAc(b1-2)Man(a1-3)[Neu5Ac(a2-3)Gal(b1-4)GlcNAc(b1-2)Man(a1-6)]Man(b1-4)GlcNAc(b1-4)GlcNAc
Method in brief: (§1)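 From the Consortium for Functional Glycomics database, 3228 arrays were curated, keeping only those whose protein sequence was available. Binding is given as a within-array Z-score averaged across arrays sharing a protein sequence and across linkers. Negative Z-scores can be read as non-binding.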

[2] = target: Neu5Ac(a2-6)Gal(b1-4)GlcNAc(b1-2)Man(a1-3)[Neu5Ac(a2-6)Gal(b1-4)GlcNAc(b1-2)Man(a1-6)]Man(b1-4)GlcNAc(b1-4)GlcNAc
Method in brief: as §1

[3] = target: Neu5Ac(a2-6)Gal(b1-4)GlcNAc(b1-2)Man(a1-3)[Neu5Ac(a2-6)Gal(b1-4)GlcNAc(b1-2)Man(a1-6)]Man(b1-4)GlcNAc(b1-4)[Fuc(a1-6)]GlcNAc
Method in brief: as §1

[4] = target: Neu5Ac(a2-6)Gal(b1-4)GlcNAc(b1-2)Man(a1-6)Man(b1-4)GlcNAc(b1-4)GlcNAc
Method in brief: as §1

[5] = target: Neu5Ac(a2-6)Gal(b1-4)GlcNAc(b1-2)Man(a1-6)[Gal(b1-4)GlcNAc(b1-2)Man(a1-3)]Man(b1-4)GlcNAc(b1-4)GlcNAc
Method in brief: as §1

[6] = target: Neu5Ac(a2-6)Gal(b1-4)GlcNAc(b1-2)Man(a1-6)[GlcNAc(b1-2)Man(a1-3)]Man(b1-4)GlcNAc(b1-4)GlcNAc
Method in brief: as §1

[7] = target: Neu5Ac(a2-6)Gal(b1-4)GlcNAc(b1-2)Man(a1-6)[Man(a1-3)]Man(b1-4)GlcNAc(b1-4)GlcNAc
Method in brief: as §1

[8] = target: Neu5Ac(a2-6)Gal(b1-4)GlcNAc(b1-2)[Neu5Ac(a2-6)Gal(b1-4)GlcNAc(b1-4)]Man(a1-3)[GlcNAc(b1-4)][Neu5Ac(a2-6)Gal(b1-4)GlcNAc(b1-2)[Neu5Ac(a2-6)Gal(b1-4)GlcNAc(b1-6)]Man(a1-6)]Man(b1-4)GlcNAc(b1-4)GlcNAc
Method in brief: as §1

[9] = target: Neu5Ac(a2-6)Gal(b1-4)GlcNAc(b1-2)[Neu5Ac(a2-6)Gal(b1-4)GlcNAc(b1-4)]Man(a1-3)[GlcNAc(b1-4)][Neu5Ac(a2-6)Gal(b1-4)GlcNAc(b1-4)Man(a1-6)]Man(b1-4)GlcNAc(b1-4)GlcNAc
Method in brief: as §1

[10] = target: Neu5Ac(a2-6)Gal(b1-4)GlcNAc(b1-2)[Neu5Ac(a2-6)Gal(b1-4)GlcNAc(b1-6)]Man(a1-6)[Neu5Ac(a2-6)Gal(b1-4)GlcNAc(b1-2)Man(a1-3)][GlcNAc(b1-4)]Man(b1-4)GlcNAc(b1-4)GlcNAc
Method in brief: as §1

[11] = target: Neu5Ac(a2-6)Gal(b1-4)GlcNAc(b1-3)Gal(b1-3)GlcNAc
Method in brief: as §1

[12] = target: Neu5Ac(a2-6)Gal(b1-4)GlcNAc(b1-3)Gal(b1-4)GlcNAc
Method in brief: as §1

[13] = target: Neu5Ac(a2-6)Gal(b1-4)GlcNAc(b1-3)Gal(b1-4)GlcNAc(b1-2)Man(a1-3)[Neu5Ac(a2-6)Gal(b1-4)GlcNAc(b1-3)Gal(b1-4)GlcNAc(b1-2)Man(a1-6)]GalNAc
Method in brief: as §1

[14] = target: Neu5Ac(a2-6)Gal(b1-4)GlcNAc(b1-3)Gal(b1-4)GlcNAc(b1-3)Gal(b1-4)GlcNAc
Method in brief: as §1

[15] = target: Neu5Ac(a2-6)Gal(b1-4)GlcNAc(b1-3)Gal(b1-4)GlcNAc(b1-3)Gal(b1-4)GlcNAc(b1-2)Man(a1-3)[Neu5Ac(a2-6)Gal(b1-4)GlcNAc(b1-3)Gal(b1-4)GlcNAc(b1-3)Gal(b1-4)GlcNAc(b1-2)Man(a1-6)]GalNAc
Method in brief: as §1

[16] = target: Neu5Ac(a2-6)Gal(b1-4)GlcNAc(b1-3)Gal(b1-4)GlcNAc(b1-3)GalNAc
Method in brief: as §1

[17] = target: Neu5Ac(a2-6)Gal(b1-4)GlcNAc(b1-3)Gal(b1-4)GlcNAc(b1-3)[Neu5Ac(a2-6)Gal(b1-4)GlcNAc(b1-3)Gal(b1-4)GlcNAc(b1-6)]GalNAc
Method in brief: as §1

[18] = target: Neu5Ac(a2-6)Gal(b1-4)GlcNAc(b1-3)Gal(b1-4)GlcNAc(b1-6)[Gal(b1-3)]GalNAc
Method in brief: as §1

[19] = target: Neu5Ac(a2-6)Gal(b1-4)GlcNAc(b1-3)Gal(b1-4)[Fuc(a1-3)]GlcNAc(b1-3)Gal(b1-4)[Fuc(a1-3)]GlcNAc
Method in brief: as §1

[20] = target: Neu5Ac(a2-6)Gal(b1-4)GlcNAc(b1-3)GalNAc
Method in brief: as §1

[21] = target: Neu5Ac(a2-6)Gal(b1-4)GlcNAc(b1-3)[Neu5Ac(a2-6)Gal(b1-4)GlcNAc(b1-6)]GalNAc
Method in brief: as §1

[22] = target: Neu5Ac(a2-6)Gal(b1-4)GlcNAc(b1-6)GalNAc
Method in brief: as §1

[23] = target: Neu5Ac(a2-6)Gal(b1-4)GlcNAc(b1-6)[Gal(b1-3)GlcNAc(b1-3)]Gal(b1-4)Glc
Method in brief: as §1

[24] = target: Neu5Ac(a2-6)Gal(b1-4)GlcNAc(b1-6)[Gal(b1-3)]GalNAc
Method in brief: as §1

[25] = target: Neu5Ac(a2-6)Gal(b1-4)GlcNAc6S
Method in brief: as §1

Neu5Ac(a2-6)GalNAc = target: Neu5Ac(a2-6)GalNAc
Method in brief: as §1

[26] = target: Neu5Ac(a2-6)GalNAc(b1-4)GlcNAc
Method in brief: as §1

[27] = target: Neu5Ac(a2-6)GalNAc(b1-4)GlcNAc6S
Method in brief: as §1

[28] = target: Neu5Ac(a2-6)GlcNAc(b1-4)GlcNAc
Method in brief: as §1

[29] = target: Neu5Ac(a2-6)GlcNAc(b1-4)GlcNAc(b1-4)GlcNAc
Method in brief: as §1

B1: CBM40 CPF071 (Clostridium perfringens) (protein)
chain: MAHHHHHHVGTGSNDDDDKSPDPMLSSLGEYKDINLESSNASNITYDLEKYKNLDEGTIVVRFNSKDSKIQSLLGISNSKTKNGYFNFYVTNSRVGFELRNQKNEGNTQNGTENLVHMYKDVALNDGDNTVALKIEKNKGYKLFLNGKMIKEVKDTNTKFLNNIENLDSAFIGKTNRYGQSNEYNFKGNIGFMNIYNEPLGDDYLLSKTGETK
B1 was tested, and the “glycan array binding signal (z-score)” value [1] was 0, the “glycan array binding signal (z-score)” value [2] was 0.954 and the “glycan array binding signal (z-score)” value [3] was 1.42. The “glycan array binding signal (z-score)” value [4] was -0.418, the “glycan array binding signal (z-score)” value [5] was -0.484 and the “glycan array binding signal (z-score)” value [6] was 0.107. The “glycan array binding signal (z-score)” value [7] was -0.197, the “glycan array binding signal (z-score)” value [8] was 0.051 and the “glycan array binding signal (z-score)” value [9] was 0.128. The “glycan array binding signal (z-score)” value [10] was -0.409, the “glycan array binding signal (z-score)” value [11] was -0.359 and the “glycan array binding signal (z-score)” value [12] was 0.645. For the same binder, the “glycan array binding signal (z-score)” value [13] was -0.258, the “glycan array binding signal (z-score)” value [14] was -0.532 and the “glycan array binding signal (z-score)” value [15] was 0.854. For the same binder, the “glycan array binding signal (z-score)” value [16] was 0.252, the “glycan array binding signal (z-score)” value [17] was -0.308 and the “glycan array binding signal (z-score)” value [18] was 0.025. For the same binder, the “glycan array binding signal (z-score)” value [19] was -0.094, the “glycan array binding signal (z-score)” value [20] was 0.244 and the “glycan array binding signal (z-score)” value [21] was 0.449. For the same binder, the “glycan array binding signal (z-score)” value [22] was -0.376, the “glycan array binding signal (z-score)” value [23] was -0.069 and the “glycan array binding signal (z-score)” value [24] was -0.217. For the same binder, the “glycan array binding signal (z-score)” value [25] was 0.003, the “glycan array binding signal (z-score)” value (Neu5Ac(a2-6)GalNAc) was -0.585 and the “glycan array binding signal (z-score)” value [26] was 0.11. The “glycan array binding signal (z-score)” value [27] was -0.288, the “glycan array binding signal (z-score)” value [28] was 0.243 and the “glycan array binding signal (z-score)” value [29] was -0.179.
